In the supplement of paper PMC3334620:
The full ranking holds about 33,000 sequences; the median of “E-score (-0.5 to 0.5)” is about -0.017, and the highest 2% start at about 0.3. This is one part of the list.

molecular target: T1, Sut1 (UniProt P53032); assay: PBM E-score (8-mer binding enrichment) (E-score (-0.5 to 0.5)); higher = stronger / more preferred TF binding; most listed sequences are background and not binding sites; settings: protein concentration: 200 nM; construct: GST-full length
T1 sequence: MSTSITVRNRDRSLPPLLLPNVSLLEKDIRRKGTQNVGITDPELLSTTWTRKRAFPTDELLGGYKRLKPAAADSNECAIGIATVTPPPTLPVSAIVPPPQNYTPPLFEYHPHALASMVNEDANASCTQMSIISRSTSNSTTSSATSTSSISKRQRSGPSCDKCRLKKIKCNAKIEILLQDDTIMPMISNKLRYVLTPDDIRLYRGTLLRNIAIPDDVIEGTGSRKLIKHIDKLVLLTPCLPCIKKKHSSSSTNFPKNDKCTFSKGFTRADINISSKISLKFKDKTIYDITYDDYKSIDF
Summary of the method: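 Masliner-normalised scans of fluorescent anti-GST signal were the basis for scoring. That signal came from GST-tagged yeast transcription factors applied at about 100-200 nM to double-stranded universal all-10-mer Agilent arrays on fresh or once-stripped slides. Each ungapped eight-base word, pooled with its reverse complement, received an E-score from the Universal PBM Analysis Suite.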

Sequence	PBM E-score
AACGTTCT	0.0497
AGAGGGCT	-0.35
ACGGAAGT	0.106
CGGATGTC	0.0637
CAGAGTTA	-0.148
CCACCCGA	-0.172
ACGATTGA	0.0407
CGACCGTA	-0.187
ACTGCAGG	-0.18
GGGTTCCA	-0.0414
CTTCAAGC	-0.115
GTGCTATA	0.121
GAGCCCTC	-0.299
AGGCATAT	-0.0272
GGTATACA	-0.12
CCGGCCCG	0.0526
ATAGGAAC	0.103
ATACCTTG	0.0477
AAACAGAG	-0.108
CGTACCCA	-0.179
AGAATCTC	0.0495
TACGTTAA	0.129
GTTGGAAA	0.0298
ATTACGGC	-0.0212

Sequence	PBM E-score
GCTCATTA	-0.029
CATTTGCG	0.0954
ATCCCTCA	-0.19
AATACTCT	0.179
CTAGCCAA	0.137
AGTGCGAA	0.0436
AGAAGACT	-0.0946
ACGTCCAG	-0.197
ATAATTTA	0.337
CGCTTGTA	0.0626
GAGTCACC	-0.0467
GCCGGCAA	0.144
ACCTAGGA	-0.0318
CTATTGTA	0.255
AAAGGGAG	-0.254
ATATCTTA	0.281
ACACTGGG	-0.171
AACTTACT	0.0273
GGAATGCC	-0.109
ACGCCAGG	-0.185
CAGCTAAC	-0.21
CCGATGTC	0.207
TCATCTCA	0.0502
AGCACCAG	-0.153

Sequence	PBM E-score
TAACGAGA	0.139
GCACCACA	-0.198
CCGCCTCC	-0.0309
AATAGGTA	0.214
AAGTTCTA	0.0927
CGACCTTA	-0.0103
CGGTGGCA	-0.223
TTATTGAA	0.183
AAAACCAT	0.228
AGATGTGC	-0.0367
ATTCATGG	0.135
AGCTGTAC	-0.122
GCCGCTAA	0.0629
CGCCAAGA	-0.282
ATACATGA	0.168
CAATTCTA	0.0644
ACCTGCAA	-0.165
CCCATGGA	-0.146
CATTGAAA	0.249
AAGCCGTA	0.0299
GTGGGTCA	-0.218
AAGGCATA	-0.0701
AAGGCAGT	0.0579
GATATCGC	0.047

Sequence	PBM E-score
ACGCATGG	-0.224
ACGTACGG	-0.154
AGACCGAA	0.15
GAATAGAA	0.229
CTGCTAAG	-0.0745
CGAGGGCA	-0.257
GCACACGA	-0.177
ATCGCTAA	0.00759
ACACAACG	0.0126
ATCGGTGC	-0.0848
AATCATTC	0.202
ACTAGACC	0.0632
AACTCGCC	0.00829
GGAGGCAC	-0.247
CACCTGTA	-0.17
ACTTACCG	0.222
ATACAAAG	0.119
GACAGAGC	-0.0868
AGAGGGTC	-0.143
AGGGAAAA	0.0188
AAAAAGGG	-0.0466
GCTACCCA	-0.178
